Data on 88 molecules can be found in publication PMC4336329 (PLoS ONE, 2015).

Hit rate of the full screen: of about 310,000 compounds, about 2,200 (0.71%) showed an effect of 50% or more. The effect is printed as a negative number. The list shows a part of the results.

Chain of human ether-à-go-go-related gene (hERG) potassium channel (Q12809 whole entry, looked up): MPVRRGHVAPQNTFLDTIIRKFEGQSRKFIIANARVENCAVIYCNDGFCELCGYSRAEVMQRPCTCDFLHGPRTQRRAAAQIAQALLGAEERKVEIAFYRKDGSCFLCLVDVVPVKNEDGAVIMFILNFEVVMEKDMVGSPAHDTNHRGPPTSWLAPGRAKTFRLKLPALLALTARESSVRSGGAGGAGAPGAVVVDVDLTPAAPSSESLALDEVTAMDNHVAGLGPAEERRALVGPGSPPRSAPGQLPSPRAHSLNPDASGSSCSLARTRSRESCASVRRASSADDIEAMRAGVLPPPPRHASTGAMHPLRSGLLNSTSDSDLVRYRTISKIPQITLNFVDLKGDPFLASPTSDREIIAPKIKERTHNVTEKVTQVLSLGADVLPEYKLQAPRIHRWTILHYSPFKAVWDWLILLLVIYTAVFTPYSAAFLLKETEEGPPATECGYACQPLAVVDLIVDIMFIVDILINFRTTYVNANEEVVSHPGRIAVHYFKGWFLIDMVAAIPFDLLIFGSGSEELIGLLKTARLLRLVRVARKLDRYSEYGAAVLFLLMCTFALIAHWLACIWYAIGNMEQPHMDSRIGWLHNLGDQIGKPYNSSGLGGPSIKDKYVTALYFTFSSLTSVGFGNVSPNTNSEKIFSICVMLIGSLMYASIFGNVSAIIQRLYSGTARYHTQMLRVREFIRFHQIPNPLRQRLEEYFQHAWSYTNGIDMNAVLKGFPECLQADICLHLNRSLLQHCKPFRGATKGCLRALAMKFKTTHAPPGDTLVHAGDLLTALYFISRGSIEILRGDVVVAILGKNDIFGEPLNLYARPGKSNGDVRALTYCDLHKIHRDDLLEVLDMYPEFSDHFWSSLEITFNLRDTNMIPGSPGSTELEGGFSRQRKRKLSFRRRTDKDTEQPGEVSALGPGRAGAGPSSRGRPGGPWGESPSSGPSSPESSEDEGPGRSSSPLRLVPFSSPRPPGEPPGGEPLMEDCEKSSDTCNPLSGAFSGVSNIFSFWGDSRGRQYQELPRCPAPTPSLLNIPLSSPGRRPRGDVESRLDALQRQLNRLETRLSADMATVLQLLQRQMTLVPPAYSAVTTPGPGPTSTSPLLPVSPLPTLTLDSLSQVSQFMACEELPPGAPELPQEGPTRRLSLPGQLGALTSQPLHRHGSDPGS

The experiment addresses human ether-à-go-go-related gene (hERG) potassium channel (human, UniProt Q12809). Description: primary screen, population patch clamp on CHO cells stably expressing hERG.
On to `c1ccc(CC2CCN(Cc3nc(-c4ccccc4)no3)CC2)cc1`, for which the “hERG current change (%, negative = inhibition) at 1uM” value was 3.83%.
The figure for `NC(=O)COC(=O)Cc1coc2cc3c(cc12)CCC3` is 11.9%; for `O=C(NCc1cccnc1)C(=O)NCC1OCCCN1S(=O)(=O)c1ccc(F)cc1` (stereo not shown) it is 14.4%.
The figure for `CCOc1ccc(C2CC(c3ccc(CC)cc3)Nc3nc(N)nn32)cc1` (stereo not shown) is 9.21%.
With `Cc1ccc(C(=O)/C=C/Nc2cccc([N+](=O)[O-])c2)o1` the figure was 8.58%; with `COC(=O)c1sccc1NC(=O)c1cc(-c2cc(C)ccc2C)nc2ccccc12`, 12.5%.
Turning to `COc1ccc(NC(=O)c2sc3nc(C)cc(C)c3c2N)c(OC)c1`, the “hERG current change (%, negative = inhibition) at 1uM” value amounted to 6.28%.
The figure for `CCOC(=O)N1C=CC(C)=C[C@@H]2[C@@H](N3C(=O)c4ccccc4C3=O)C(=O)N21` is 3.34%; for `Cc1ccc(CN2CCN(/N=C\C=C\c3ccccc3)CC2)cc1` it is 12.6%; for `OC(CN1CCC(Cc2ccccc2)CC1)c1ccccc1` (stereo not shown) it is -13.3%.
With `CCOC(=O)C1(CCCc2ccccc2)CCN(C(=O)CCOC)CC1` the figure was 2.47%; with `CN(C)C(=O)c1cc([N+](=O)[O-])ccc1O`, 1.78%; with `O=C(C1=C[C@H](c2ccccc2)C[C@H](OCCCCO)O1)N1CCN(Cc2ccccc2)CC1`, -11.6%.
On to `Cn1c(=O)c2cc(S(=O)(=O)NCCC(=O)Nc3ccccc3F)ccc2n(C)c1=O`, for which the “hERG current change (%, negative = inhibition) at 1uM” value is recorded as 7.08%.
Consider `c1ccc(SCc2cc(-c3ccccc3)no2)cc1`, for which the “hERG current change (%, negative = inhibition) at 1uM” value was 8.73%.
Turning to `CCCCNC(=S)Nc1ccc(Cl)cc1`, the “hERG current change (%, negative = inhibition) at 1uM” value is 2.75%.
The figure for `CC(C)c1nc(SCC(=O)NCc2ccccc2)n[nH]1` is 11.5%; for `Cc1cc([N+](=O)[O-])nn1CCCC(=O)Nc1ccc2c(c1)OCO2` it is 16.8%; for `Cc1[nH][nH]c(=O)c1N=Nc1ccccc1` it is 14.4%.
For `C/C(=N\NC(=O)c1nn(C)c(C)c1Br)c1cccc(NC(=O)c2ccc(F)cc2)c1`, the “hERG current change (%, negative = inhibition) at 1uM” value was determined as 12.6%.
With `CCc1ccc(-c2cc(C)no2)cc1S(=O)(=O)NCCc1ccccc1` the figure was 11.1%; with `CC(C)(C)n1nnnc1CN(Cc1ccco1)Cc1cc2cc3c(cc2[nH]c1=O)OCO3`, 4.25%.
The figure for `COc1ccc(Cn2cnc3c(NS(C)(=O)=O)c(C)c(C)cc32)cc1` is 13.2%.
In the case of `Cc1cc(NC(=O)C(C)C)n(-c2nc3ccccc3s2)n1`, the “hERG current change (%, negative = inhibition) at 1uM” value is recorded as 11.2%.
On to `O=C(O)C1C2C=CC3(CN(C4CCCC4)C(=O)C13)O2` (stereo not shown), for which the “hERG current change (%, negative = inhibition) at 1uM” value came out at 1.94%.
As for `CSCC[C@H](NC(=O)OC(C)(C)C)C(=O)N1CCC(C(=O)N[C@@H](C)C(=O)NC(C)c2ccccc2)CC1` (stereo partly shown), the “hERG current change (%, negative = inhibition) at 1uM” value is on record as 18.5%.
With `O=C(NCCCN1CCOCC1)c1sc2cc(F)ccc2c1Cl`, the “hERG current change (%, negative = inhibition) at 1uM” value is given as -15.6%.
With `CC(=O)Nc1cccc(-c2nc3ccc(NC(C)=O)cc3[nH]2)c1` the figure was 3.05%; with `CC(C)NC(=O)c1ccc(CNC(=O)OCC(F)(F)F)cc1`, 15.4%.
For `Cc1cccc(CCN(C(=O)Cc2cccs2)C(C(=O)NC2CCCCC2)c2cccnc2)c1` (stereo not shown), the “hERG current change (%, negative = inhibition) at 1uM” value was 9.13%.
The figure for `CN(CC(=O)Nc1ccccc1Br)C(=O)C1CCN(C(=O)c2ccc(Cl)cc2)CC1` is -23.5%; for `Nc1ccccc1N=Nc1ccccc1N` it is -2.08%.
For `COc1ccccc1CC(=O)O/N=C(\N)c1ccccn1`, the “hERG current change (%, negative = inhibition) at 1uM” value came out at 12.4%.
The figure for `CCc1ccc(Nc2n[n+](-c3ccccc3)c(-c3cccc(Cl)c3Cl)s2)cc1.[Cl-]` is 9.99%; for `COc1ccc(NC(=O)Cn2c(=O)c(C)nc3ccccc32)cc1Cl` it is 9.8%; for `Cc1ccc2occ(/C=N/NC(=O)c3ccncc3)c(=O)c2c1` it is 9.76%.
The figure for `CCc1ccc(OC(C)c2nnc(SCC(=O)Nc3ncccc3C)n2C)cc1` (stereo not shown) is 9.38%.
With `C[N+](C)(C)CCOP(=O)([O-])OC[C@H](O)CO`, the “hERG current change (%, negative = inhibition) at 1uM” value came to 14.6%.
Turning to `COc1ccc(C(=O)NC2CC(C)(C)Cc3c2cnn3-c2ccccc2C)c(OC)c1OC` (stereo not shown), the “hERG current change (%, negative = inhibition) at 1uM” value is on record as 5.24%.
Turning to `COc1ccc(CNC(=O)C2(c3ccc(Cl)cc3)CC2)cc1`, the “hERG current change (%, negative = inhibition) at 1uM” value was 8.11%.
Consider `CCOC(=O)N1CCN(S(=O)(=O)c2ccc(OCC)c3ccccc23)CC1`, for which the “hERG current change (%, negative = inhibition) at 1uM” value came to 17.3%.
Regarding `O=C(c1ccc(Cl)cc1[N+](=O)[O-])N(Cc1ccccc1)Cc1ccccc1`, the “hERG current change (%, negative = inhibition) at 1uM” value is on record as 6.37%.
On to `CCn1c(SCC(=O)Nc2cc(C)on2)nnc1-c1cccc(C)c1`, for which the “hERG current change (%, negative = inhibition) at 1uM” value is recorded as 12.3%.
As to `CC1CCN(C(=O)c2ccccc2NC(=O)Cc2ccccc2)CC1`, the “hERG current change (%, negative = inhibition) at 1uM” value was 13.7%.
Regarding `Nc1cc(S(=O)(=O)c2ccc(O)c(N)c2)ccc1O`, the “hERG current change (%, negative = inhibition) at 1uM” value worked out at 14.3%.
The figure for `O=C(CCSc1nc(-c2ccc3c(c2)OCO3)cc(C(F)(F)F)n1)NCc1ccccc1` is 13.4%.
As to `Cc1cccc(-c2c3c(=O)n(C)c(=O)n(C)c3cn2C(C)C)c1`, the “hERG current change (%, negative = inhibition) at 1uM” value is reported as 18.1%.
The figure for `Cc1ccc(S(=O)(=O)Nc2cccc(C(=O)NCC(c3ccco3)N3CCCC3)c2)cc1F` (stereo not shown) is 1.99%.
The figure for `CCOC(=O)C1=C(C)N(c2ccc(C)cc2)C(=O)/C1=C\c1cccs1` is 3.34%; for `CN1CCN(c2nc3c(c(=O)n(C)c(=O)n3C)n2Cc2cccc(Br)c2)CC1` it is -41.4%.
With `COc1cc(OC)c(NC(=O)c2ccc(F)cc2)cc1Cl` the figure was 8.38%.
As to `C=CCN1C=C2C(=O)C(C)(OC(=O)c3ccco3)C(=O)C(C=C)=C2C=C1C1CC1` (stereo not shown), the “hERG current change (%, negative = inhibition) at 1uM” value turned out to be 6.19%.
With `O=C(Cc1cccs1)NCc1cccc(F)c1` the figure was 17.2%.
For the molecule `O=C(CSc1nc(-c2ccccc2Cl)ns1)NCc1ccco1`, the “hERG current change (%, negative = inhibition) at 1uM” value is on record as 3.46%.
The figure for `CCC(C)n1c(=N)c(C#N)cc2c(=O)n3cccc(C)c3nc21` (stereo not shown) is -16.6%; for `C=CC(=O)Nc1sc2c(c1C(N)=O)CCCC2` it is 9.53%.
The figure for `CCCC(=O)N(Cc1cc(=O)[nH]c2ccccc12)c1ccc(OC)cc1` is 17.2%; for `CCCN1CCC(=O)N([C@H](CSc2ccc(OC)cc2)CC(C)C)CC1` it is -42.3%; for `O=C1C2ON(c3ccccc3)C(c3cccnc3)C2C(=O)N1c1ccc(Cl)c(Cl)c1` (stereo not shown) it is 16.6%.
The figure for `Cc1ccc(-c2nc(Nc3ccccc3)n[nH]2)cc1` is 11.8%; for `Cc1ccc(CC(C(=O)O)C(C)C(=O)Nc2ccc(F)cc2)cc1` (stereo not shown) it is 4.96%.
Consider `Cc1ccccc1OCCCC(=O)Nc1nccs1`, for which the “hERG current change (%, negative = inhibition) at 1uM” value worked out at 15.9%.
The figure for `O=C(CSc1nnnn1-c1ccccc1F)NNC(=O)c1ccco1` is 17.3%; for `Cc1cc(NC(=O)CSc2nnc(-c3ccc4c(c3)OCCO4)o2)no1` it is 12.6%.
On to `O=C(N/N=C/c1ccco1)c1ccc(C(=O)N/N=C/c2ccco2)o1`, for which the “hERG current change (%, negative = inhibition) at 1uM” value came out at 12.5%.
With `CCOc1ccccc1NC(=O)COc1cccc(-n2cnnn2)c1` the figure was -4.1%; with `COc1ccc(NC(=S)Nc2ccc(C)c(Cl)c2)cc1OC`, 7.68%; with `NC1=NC(=O)/C(=C/c2ccc(Br)cc2)S1`, 17.5%.
With `COc1cccc(C(=O)N/N=C2/SCC(=O)N2CCc2ccc(OC)c(OC)c2)c1` the figure was 8.81%; with `O=C(O)c1ccc(NS(=O)(=O)c2cccc3cccnc23)cc1`, 0.363%.
The figure for `Cc1ccsc1C(=O)NNC(=O)Nc1ccc(Cl)c(Cl)c1` is 6.98%.
`COc1ccc(-c2cc(C(=O)Nc3ccc(Cl)cc3Cl)c3ccccc3n2)cc1OC`: the “hERG current change (%, negative = inhibition) at 1uM” value is 12.8%.
Take `O=C(CNS(=O)(=O)c1ccc(Cl)c(C(F)(F)F)c1)NC1CCCCC1`: the “hERG current change (%, negative = inhibition) at 1uM” value amounted to 8.07%.
The figure for `COCCNC(=O)CSc1nc2cc3c(cc2c(=O)n1CCCC(=O)NCCc1ccc(OC)c(OC)c1)OCO3` is 17.9%; for `O=C(NCc1cccnc1)c1ccccc1-c1ccccc1` it is 5.9%.
For the molecule `C/C(=N\NC(N)=S)C1(C)CCCCC1`, the “hERG current change (%, negative = inhibition) at 1uM” value turned out to be 17.5%.
With `CC(=O)c1sc2nc(-c3ccco3)ccc2c1N`, the “hERG current change (%, negative = inhibition) at 1uM” value came to 6.17%.
The figure for `COc1cccc2cc(C(=O)NCCc3ccccc3)oc12` is -9.44%; for `Cc1cccc(N(C(=O)c2snc(C(N)=O)c2N)C(C(=O)NCC2CCCO2)c2ccc(N(C)C)cc2)c1C` (stereo not shown) it is 14.5%; for `COc1ccc(-n2c(COc3ccc(C)cc3)nnc2SCC(=O)O)cc1` it is 13.2%.
With `COc1ccc(C2/C(=C(\O)c3ccc4c(c3)CC(C)O4)C(=O)C(=O)N2Cc2cccnc2)c(OC)c1` (stereo not shown) the figure was 12.3%; with `Cc1ccc(S(=O)(=O)n2nnc3ccccc32)c(C)c1C`, 14.7%; with `Cc1sc2nc(CN3CCN(S(=O)(=O)c4cccc5nonc45)CC3)[nH]c(=O)c2c1C`, 10.4%.
The figure for `CCCn1c(N)c(C(=O)NS(=O)(=O)c2ccc(C)cc2)c(=O)n(C)c1=O` is 5.76%; for `O=C(O)CC1(CC(=O)Nc2ccc(C(F)(F)F)cc2)CCCC1` it is 15.6%; for `C/C(=N\NC(=O)Cc1ccccc1)c1ccc(Cl)s1` it is 11.2%.
On to `Br.CO[C@H]1CC=C2CCN3CCC4=C(CC(=O)OC4)[C@]23C1`, for which the “hERG current change (%, negative = inhibition) at 1uM” value is 17%.
With `CCN1CC=C2C(C#N)=C(N)C(C#N)(C#N)C(CCc3ccccc3)C2C1` (stereo not shown) the figure was -15.6%.
